Data from PubChem BioAssay AID624274 (Broad Institute, 2012).
A number of entries come with more than one value. The list is limited to them. The source may hold further records. The records of an entry are repeats (runs, samples, wells, individuals or studies). Brackets tell where a record comes from. Letters count within one entry.

Target: Protein disulfide-isomerase (Homo sapiens) (UniProt P07237)
Assay: PDI inhibitors, insulin turbidity readout, dose response, biochemical, absorbance, cherry-picked samples, set 2 (AID 624274)
Details: PDI insulin reduction turbidity, absorbance 650 nm

UniProt P07237, sequence (P07237 whole entry, looked up): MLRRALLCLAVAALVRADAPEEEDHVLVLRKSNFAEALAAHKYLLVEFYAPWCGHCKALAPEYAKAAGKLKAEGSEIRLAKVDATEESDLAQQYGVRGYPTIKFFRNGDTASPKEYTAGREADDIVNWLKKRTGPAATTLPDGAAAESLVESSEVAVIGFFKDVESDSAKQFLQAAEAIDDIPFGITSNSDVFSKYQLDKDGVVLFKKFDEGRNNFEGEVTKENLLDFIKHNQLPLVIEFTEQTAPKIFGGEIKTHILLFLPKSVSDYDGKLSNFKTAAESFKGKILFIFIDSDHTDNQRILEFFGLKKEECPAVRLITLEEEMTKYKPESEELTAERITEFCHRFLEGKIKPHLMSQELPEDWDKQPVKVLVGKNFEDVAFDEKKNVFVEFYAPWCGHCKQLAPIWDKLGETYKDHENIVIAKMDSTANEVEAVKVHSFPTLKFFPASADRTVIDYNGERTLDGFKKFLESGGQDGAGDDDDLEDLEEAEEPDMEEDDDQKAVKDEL

C[C@@H]1CN([C@H](C)CO)C(=O)c2cc(NC(=O)Cc3cn(C)c4ccccc34)ccc2O[C@H]1CN(C)S(=O)(=O)c1ccc(F)cc1
AC50: 16.4 µM [sample A] and 1.26 µM [sample B]
